The full ranking holds about 33,000 sequences; the median of “E-score (-0.5 to 0.5)” is about -0.011, and the highest 2% start at about 0.28. The list shows a part of the results.
Molecular target: T1, Gcr1 (UniProt P07261)
T1 sequence: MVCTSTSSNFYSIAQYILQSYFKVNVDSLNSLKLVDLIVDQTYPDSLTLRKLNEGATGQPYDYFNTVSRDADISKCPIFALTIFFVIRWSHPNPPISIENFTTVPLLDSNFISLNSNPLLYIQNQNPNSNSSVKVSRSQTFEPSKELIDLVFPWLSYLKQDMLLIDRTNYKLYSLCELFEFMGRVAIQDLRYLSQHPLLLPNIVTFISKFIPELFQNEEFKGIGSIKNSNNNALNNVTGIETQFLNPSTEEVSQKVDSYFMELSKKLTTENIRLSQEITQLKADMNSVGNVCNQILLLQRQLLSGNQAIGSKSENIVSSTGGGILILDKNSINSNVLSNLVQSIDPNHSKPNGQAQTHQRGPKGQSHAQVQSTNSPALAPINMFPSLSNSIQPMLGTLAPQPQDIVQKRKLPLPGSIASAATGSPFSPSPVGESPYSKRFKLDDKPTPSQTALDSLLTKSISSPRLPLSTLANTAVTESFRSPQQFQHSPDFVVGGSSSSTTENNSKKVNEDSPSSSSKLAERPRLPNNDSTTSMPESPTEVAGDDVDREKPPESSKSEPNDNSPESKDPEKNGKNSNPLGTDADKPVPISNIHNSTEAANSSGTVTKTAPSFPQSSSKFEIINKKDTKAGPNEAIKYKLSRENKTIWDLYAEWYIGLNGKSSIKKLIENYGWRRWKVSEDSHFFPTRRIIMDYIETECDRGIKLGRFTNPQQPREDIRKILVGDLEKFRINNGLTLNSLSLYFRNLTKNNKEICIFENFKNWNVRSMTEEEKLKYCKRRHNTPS
Assay: PBM E-score (8-mer binding enrichment) (E-score (-0.5 to 0.5)); higher = stronger / more preferred TF binding; most listed sequences are background and not binding sites
Settings: protein concentration: 100 nM; construct: GST-full length
Method in brief: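 Bound GST-tagged yeast transcription factors, applied at about 100-200 nM to double-stranded universal all-10-mer Agilent arrays, were detected with fluorescent anti-GST. Scans were normalised with masliner. A modified Wilcoxon-Mann-Whitney statistic, the E-score, was assigned to each ungapped eight-base word pooled with its reverse complement by the Universal PBM Analysis Suite.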

Row | Sequence | PBM E-score
1 | CACCTCAA | 0.0922
2 | ATGAACGA | -0.0674
3 | TGACCAAA | 0.0367
4 | ATTAGGCG | 0.309
5 | AATAATCT | -0.138
6 | GGAACCTA | 0.401
7 | ACTGAATG | -0.0455
8 | CGCCTACG | -0.00139
9 | AATATCTA | -0.0219
10 | ATTAAACA | -0.147
11 | GAACCTCC | -0.0385
12 | GGTGACGA | -0.118
13 | CAGCTCCC | -0.00932
14 | CGACTGAG | -0.0916
15 | AGTGGAAT | 0.39
16 | CATTAACA | 0.122
17 | GAGTTGTA | 0.0608
18 | CCCCGCCG | 0.0265
19 | ATAACTTA | -0.0576
20 | AACCGCAG | -0.0605
21 | ACGACTCC | 0.0392
22 | CATCATGA | -0.0913
23 | ACCGCTGC | -0.0963
24 | CATTGTAA | -0.024
25 | CACTGTTA | -0.0411

Row | Sequence | PBM E-score
26 | CGTTCCTC | -0.116
27 | AACCGAGG | -0.198
28 | CCTAACGC | 0.00399
29 | AGCTGAAT | 0.136
30 | CATCAGTA | -0.074
31 | ACCACACA | 0.0556
32 | GGAGGGCC | 0.0133
33 | CTGACCTA | -0.107
34 | ACAGCTGC | 0.137
35 | ATGATTGA | -0.00536
36 | ATAACCTG | 0.0173
37 | AAATTGTT | 0.0443
38 | CTCGCTTA | -0.0713
39 | ATCTGCCA | -0.0494
40 | ATATGGTC | 0.066
41 | CCACGCAC | -0.137
42 | ATACCTCG | 0.0197
43 | CCTATCGC | 0.0835
44 | AAGCGGGC | -0.0899
45 | CCATAAGC | -0.135
46 | AAGTCGCA | -0.0123
47 | TATGTCAA | -0.0242
48 | CCGATCCG | -0.124
49 | AATCGCGA | -0.108
50 | ATGGCGCC | 0.343

Row | Sequence | PBM E-score
51 | AGACGGCA | -0.201
52 | CACTGTAG | -0.115
53 | ACTCGACC | -0.209
54 | ATAGATAA | 0.0925
55 | AAGAGAGC | -0.276
56 | CCGGTAAA | 0.149
57 | GGCAAGGA | -0.156
58 | CAGCACTG | -0.19
59 | AGACATTC | 0.0235
60 | CCAAAGAA | 0.136
61 | CAGACCAG | 0.0694
62 | CCTGTGCA | -0.0701
63 | AGTCTAAT | 0.105
64 | GATTGACA | -0.0893
65 | AGGGTCTG | -0.215
66 | ACGAGCCA | -0.0923
67 | GATTGACC | -0.122
68 | GACTGATC | -0.154
69 | AGCCATCG | -0.209
70 | AAGCCCGC | 0.144
71 | GCCACAAC | 0.246
72 | CCACAGGC | -0.0205
73 | AGAGCGCC | 0.0412
74 | AGTACCGA | -0.0864
75 | CTATTCGA | -0.0452

Row | Sequence | PBM E-score
76 | CTTGCCGC | -0.061
77 | CAAAGTCA | -0.0915
78 | AGATGCAC | -0.0398
79 | AAAAATGC | 0.153
80 | GGTTAGCA | -0.0601
81 | CCGAGGTA | -0.0222
82 | GAATTCAA | 0.0565
83 | GAAGCTTC | 0.339
84 | CGACCCAC | -0.0741
85 | AATCTTCA | 0.144
86 | GTGGAGCA | -0.00069
87 | AAGGGTAC | -0.0737
88 | AACAAGTG | 0.0405
89 | AGGAGATC | 0.0885
90 | AGCCTTAA | -0.114
91 | GAACGGAC | -0.105
92 | AAGCATTG | -0.079
93 | ACACTGAT | -0.0612
94 | GTGTTTGA | 0.0925
95 | GGAGCCGA | 0.241
96 | CCCAGTTC | 0.0921
97 | AAGTATTG | -0.0395
98 | TATTTGCA | 0.162
99 | TGTCCACA | 0.109
100 | CAGCACTA | -0.194

Row | Sequence | PBM E-score
101 | GCTCCGAA | 0.0352
102 | AGTATTCC | -0.0142
103 | AGCCGGGG | -0.0742
104 | CACATAGC | -0.125
105 | GAGTAGTA | 0.0471
106 | CCAGTACC | 0.0669
107 | CCTACCCG | 0.00295
108 | ACTATTTA | 0.293
109 | AATCCGCG | -0.164
110 | CGATCGAA | -0.193
111 | ATGGCGCA | -0.122
112 | AACTATCC | -0.0875
113 | AATTCTGT | 0.121
114 | AACAATTA | 0.0853
115 | GGTGGGAC | -0.0594
116 | GCCGAACC | 0.0219
117 | CATCTGAC | -0.242
118 | CTACTTAC | 0.0789
119 | CAATGGCA | -0.159
120 | AGCTATGC | -0.269
121 | CGTTACAC | -0.0307
122 | CTACGCAC | -0.131
123 | ATTACACC | 0.0915
124 | CCAGCGTA | -0.178
125 | CCCTTGGA | -0.0534

Row | Sequence | PBM E-score
126 | ACTGAAAG | -0.0295
127 | GGTGTCCA | 0.236
128 | GCGTTTCA | -0.0887
129 | GTGGTTCA | -0.0637
130 | ACCTTGAT | 0.0821
131 | TGATGTAA | 0.0738
132 | AATGAGAC | -0.149
133 | TCAACCAA | -0.131
134 | AAGCTGCG | 0.15
135 | CGGGCATA | -0.232
136 | CGTTTGGA | 0.109
137 | CTTTGGCC | 0.0991
138 | TAACCGGA | 0.23
139 | CACTACAC | 0.225
140 | AGTCTGTG | -0.266
141 | ACCTCTGC | -0.0524
142 | GGACGTGA | -0.189
143 | AGTACCAG | 0.0431
144 | AATGCTTC | -0.167
145 | GCGATGTA | 0.0104
146 | AATCAGTA | 0.0347
147 | GTTAGAAC | -0.108
148 | AGCTCGGG | 0.0372
149 | ATTACGTA | 0.189
150 | GAGTAAAC | 0.00232

Row | Sequence | PBM E-score
151 | ACTGTGAG | -0.0583
152 | CTATCACA | 0.0182
153 | GCTTACCA | -0.193
154 | TGATATCA | 0.0841
155 | ATAGGATC | 0.158
156 | ATTATGCG | 0.218
157 | TTACCGAA | 0.081
158 | ACCTACTA | 0.0171
159 | CAACATAG | -0.0499
160 | CTTTTTTA | 0.176
161 | CAAACCTA | -0.0633
162 | AGCATTCC | -0.037
163 | AACCAAAG | -0.00576
164 | CCACGGCC | -0.0782
165 | CTCAAATC | -0.0759
166 | AAGAGACA | 0.0358
167 | ACCGCCCA | -0.342
168 | AACAGGGC | 0.0085
169 | GCGTCTCA | 0.146
170 | GCGAACAA | -0.16
171 | CCGGGGTA | -0.111
172 | CCAGGGGG | -0.231
